The target in experiment [1] is 6 × His-APT1 fusion protein (acyl-protein thioesterase 1, Medicago truncatula) (Medicago truncatula). Briefly: condition: only with different concentrations of 2-ME during purification; nonreducing SDS-PAGE with immunoblot; purified 6 × His-APT1 after treatment with a thiol reducing agent (1 mM DTT, 10 mM GSH, 10 mM cysteine, or 2-ME during purification); both purified. For orientation: A western blot detects proteins with antibodies after separation by electrophoresis.

The chains behind the UniProt entries cited, without tags or fusion partners. Where a name states a change or a piece, a line headed by the entry shows the natural chain unless it says otherwise.
UniProt A0A218KHF5: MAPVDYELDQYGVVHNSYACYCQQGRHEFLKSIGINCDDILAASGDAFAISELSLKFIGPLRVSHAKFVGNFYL

For experiment [2] the target is unchanged. As to the kind of experiment: nonreducing SDS-PAGE with immunoblot; purified APT1 treated with 10 mM GSH, then with H2O2 (40 μM and 200 μM); both purified.
Experiment [3] concerns the target 6 × His-APT1^C20S (Medicago truncatula). As to the kind of experiment: nonreducing SDS-PAGE with immunoblot; 6 × His-APT1 proteins after Ni purification from E. coli, no reducing agent; Tris-Tricine SDS-PAGE system; both purified.
The target in experiment [4] is 6 × His-APT1^C20SC22S (Medicago truncatula). The experiment is described as above.
Experiment [5] concerns the target 6 × His-APT1^C20SC22SC37S (Medicago truncatula). The experiment is described as above.
Experiment [6] addresses 6 × His-APT1^C20SC37S (Medicago truncatula). The description is as above.
The target in experiment [7] is 6 × His-APT1^C22S (Medicago truncatula). Described as above.
In experiment [8] the target is 6 × His-APT1^C22SC37S (Medicago truncatula). The experiment is described as above.
Experiment [9] concerns the target 6 × His-APT1^C37S (Medicago truncatula). The experiment is described as above.
Experiment [10] concerns the target APT1-GFP fusion protein (p35S:APT1-GFP) in M. truncatula apt1 roots (Medicago truncatula). As to the kind of experiment: nonreducing capillary electrophoresis immunoassay (Simple Jess) + other: nonreducing SDS-PAGE with immunoblot; root lysates of p35S:APT1-GFP/apt1 plants in the absence of stress; DTT-free buffers, samples not heated, anti-GFP.
The target is the same in experiment [11]. Briefly: condition: only after recovery for 96 h from oxidative stress; nonreducing capillary electrophoresis immunoassay (Simple Jess) + other: nonreducing SDS-PAGE with immunoblot; root lysates of p35S:APT1-GFP/apt1 plants after 4 mM H2O2 and recovery under normal conditions for 96 h; anti-GFP.

These are yes or no findings as the source states them, for the method shown. Some binding calls cover weakened binding; strength is not graded here.

Consider “6 × His-APT1 fusion protein (acyl-protein thioesterase 1, Medicago truncatula) (from UniProt A0A218KHF5 1-74) (enzyme)”, for which the binding entry in experiment [1] is “no binding”; in experiment [2], “binds”.
Turning to “6 × His-APT1^C20S (from UniProt A0A218KHF5 1-74) (enzyme)”, the binding entry in experiment [3] was “binds”.
For “6 × His-APT1^C20SC22S (from UniProt A0A218KHF5 1-74) (enzyme)”, in experiment [4], the binding entry is “binds”.
For the substance “6 × His-APT1^C20SC22SC37S (from UniProt A0A218KHF5 1-74) (enzyme)”, the binding entry in experiment [5] is “no binding”.
Consider “6 × His-APT1^C20SC37S (from UniProt A0A218KHF5 1-74) (enzyme)”, for which the binding result in [6] is on record as “binds”.
In the case of “6 × His-APT1^C22S (from UniProt A0A218KHF5 1-74) (enzyme)”, in experiment [7], the binding entry was “binds”.
Regarding “6 × His-APT1^C22SC37S (from UniProt A0A218KHF5 1-74) (enzyme)”, the binding result in experiment [8] is “binds”.
Regarding “6 × His-APT1^C37S (from UniProt A0A218KHF5 1-74) (enzyme)”, in [9], the binding entry is reported as “binds”.
“APT1-GFP fusion protein (p35S:APT1-GFP) in M. truncatula apt1 roots (from UniProt A0A218KHF5 1-74) (enzyme)”: the binding entry is “no binding (condition: in the absence of stress)” in experiment [10] and “no binding” in experiment [11].

The values above are taken from publication PMC10192129.
